Experimental data: paper PMC4336329 (PLoS ONE, 2015)
About 14,000 (4.5%) of roughly 310,000 compounds showed an effect of 50% or more. Effects have a minus sign here. The list shows a part of the results.

Target: human ether-à-go-go-related gene (hERG) potassium channel (human, UniProt Q12809)
Experiment: primary screen, population patch clamp on CHO cells stably expressing hERG
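Further: peak tail current of the secondary pulse compared with the same well before compound.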

human ether-à-go-go-related gene (hERG) potassium channel, sequence (Q12809 whole entry, looked up): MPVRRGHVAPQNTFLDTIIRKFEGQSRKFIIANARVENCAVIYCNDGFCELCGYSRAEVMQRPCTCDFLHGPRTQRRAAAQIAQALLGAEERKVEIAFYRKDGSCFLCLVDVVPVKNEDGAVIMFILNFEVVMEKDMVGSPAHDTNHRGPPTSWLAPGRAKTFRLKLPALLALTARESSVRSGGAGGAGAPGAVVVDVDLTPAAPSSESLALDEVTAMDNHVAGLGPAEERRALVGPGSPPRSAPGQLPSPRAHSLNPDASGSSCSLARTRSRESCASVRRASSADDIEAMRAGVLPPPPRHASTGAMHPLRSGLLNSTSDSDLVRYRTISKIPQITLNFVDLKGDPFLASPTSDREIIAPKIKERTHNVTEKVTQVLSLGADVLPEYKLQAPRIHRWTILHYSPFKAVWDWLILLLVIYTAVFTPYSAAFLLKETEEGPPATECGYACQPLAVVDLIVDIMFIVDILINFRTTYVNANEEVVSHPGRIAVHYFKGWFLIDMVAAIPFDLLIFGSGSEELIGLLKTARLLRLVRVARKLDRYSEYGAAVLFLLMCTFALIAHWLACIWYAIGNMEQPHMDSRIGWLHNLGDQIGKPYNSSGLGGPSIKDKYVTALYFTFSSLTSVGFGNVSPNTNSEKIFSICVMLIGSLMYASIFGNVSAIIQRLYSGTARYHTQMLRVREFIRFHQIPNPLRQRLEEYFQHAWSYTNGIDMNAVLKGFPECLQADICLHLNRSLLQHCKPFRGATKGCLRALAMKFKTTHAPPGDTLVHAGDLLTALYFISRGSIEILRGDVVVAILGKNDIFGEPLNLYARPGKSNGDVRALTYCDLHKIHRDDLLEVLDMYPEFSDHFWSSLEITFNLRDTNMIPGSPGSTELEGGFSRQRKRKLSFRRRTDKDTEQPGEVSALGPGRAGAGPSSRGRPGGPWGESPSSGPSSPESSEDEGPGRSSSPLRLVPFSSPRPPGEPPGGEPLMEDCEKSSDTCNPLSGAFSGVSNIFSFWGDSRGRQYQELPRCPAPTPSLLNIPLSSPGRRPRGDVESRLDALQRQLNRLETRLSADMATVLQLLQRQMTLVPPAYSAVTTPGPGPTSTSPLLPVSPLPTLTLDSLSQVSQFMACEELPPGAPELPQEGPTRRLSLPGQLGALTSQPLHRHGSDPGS

| Compound | hERG current change (%, negative = inhibition) at 10uM [%] |
| --- | --- |
| CCCc1ccc2oc(C(=O)N(C)CCn3ccnc3C)c(C)c2c1 | -61.4 |
| Cc1ccccc1NC(=O)C1(C)Cc2ccccc2C(=O)O1 (stereo not shown) | 4.99 |
| CSc1cccc(NC(=O)C(C)NS(=O)(=O)c2ccc(F)cc2)c1 (stereo not shown) | -15.1 |
| CC(O)[C@@H](NC(=O)C1CCC(CNC(=O)[C@H](Cc2ccccc2)NC(=O)OC(C)(C)C)CC1)C(=O)O (stereo partly shown) | 18.2 |
| CC1CCC(NCC(O)c2ccccc2)CC1 (stereo not shown) | 17.2 |
| Br.CCCC1CC(CSC(=N)N)OC1=O (stereo not shown) | 13.9 |
| CC1=C(C(=O)OC(C)C)C(c2cccs2)n2ncnc2N1 (stereo not shown) | 3.5 |
| Cc1ccc(C(=O)NCC(=O)OCN2C(=O)c3ccccc3C2=O)cc1C | 6.97 |
| Cc1cc(C(=O)N/N=C/c2c(C)n(C)c3ccccc23)n[nH]1 | -5.39 |
| Cc1ccc2[nH]c(=O)c(CN(CC3COCCO3)C(=O)Nc3ccccc3C)cc2c1 (stereo not shown) | 3.87 |
| Cc1cc(S(=O)(=O)Nc2ccc(C(=O)NCC(C)(C)N3CCOCC3)cc2)ccc1F | -18.4 |
| CCOC(=O)/C=C1\SCC(=O)N1CC(=O)NCCOC | -10.2 |
| CN(C)S(=O)(=O)c1cccc(NC(=S)Nc2cc(Cl)cc(Cl)c2)c1 | -5.01 |
| Cc1cccc(Cc2cnc(NC(=O)c3ccc(C)o3)s2)c1 | -8.65 |
| Cc1cccc(NC(=S)NCCc2ccc(S(N)(=O)=O)cc2)c1C | 11.4 |
| O=c1c2cc3c(=O)n(CC4CCCO4)c(=O)c3cc2c(=O)n1CC1CCCO1 (stereo not shown) | -3.92 |
| Cc1nn(C)cc1CNC(=O)c1ccc(F)cc1 | 10.7 |
| COc1ccc(OC)c([C@@H](O)[C@H](C)NC(C)(C)C)c1.Cl | 8.9 |
| COc1ccc(N/C(N)=N/c2nc(CSc3ccc(C)cc3)cc(=O)[nH]2)cc1 | -33.8 |
| NC(=O)COC(=O)CCSc1ccc(Cl)cc1 | 20.1 |
| CCN(CC)c1ccc(/C=N/NC(=O)CNC(=O)c2cccnc2)cc1 | 1.49 |
| CCCCN1CC(COc2ccccc2)OC1=O (stereo not shown) | -16 |

| Compound | hERG current change (%, negative = inhibition) at 10uM [%] |
| --- | --- |
| CS(=O)(=O)N1c2ccccc2[C@]2(Br)C[C@H]3C(=O)N[C@@H](Cc4ccccc4)C(=O)N3[C@H]12 | 14.7 |
| Cc1oc(-c2ccccc2Cl)nc1CN1CCCN(C(=O)c2ccco2)CC1 | -65.4 |
| CCC(=O)N1CCN(c2ccc(Cl)cc2NC(=O)c2cccc([N+](=O)[O-])c2)CC1 | -49.2 |
| O=C(CN1CCOCC1)NCCNC(=O)CN1CCOCC1 | 3.02 |
| Cc1ccc(C(=O)CCC(=O)OCC(=O)Nc2ccccc2SCC#N)cc1 | -18.5 |
| Nc1cc2nsnc2cc1Br | 9.74 |
| CC(C)NC(=O)CC1C(=O)NCCN1CC(c1ccccc1)c1ccccc1 (stereo not shown) | -19.6 |
| O=C(NC1(C(=O)NC2CCCC2)CCCCC1)c1ccc2c(c1)OCO2 | 0.538 |
| COc1ccc(OC)c(NC(=O)c2nc(-c3ccccc3)oc2C)c1 | -6.31 |
| O=C(Nc1ccc(S(=O)(=O)Nc2ncccn2)cc1)C12CC3CC(CC(C3)C1)C2 | 13.4 |
| Cc1cccc(C)c1NC(=O)C1(N(Cc2ccco2)C(=O)CC2NC(=O)NC2=O)CCCCC1 (stereo not shown) | 7.25 |
| O=C(Nc1cccc(-c2nnc(-c3ccccc3)o2)c1)c1ccco1 | 13.3 |
| CCOc1cc(CNCCO)c(Cl)cc1OCC(=O)NCCc1ccccc1 | -6.82 |
| CC(C)(/C=N/O)N(O)C=C1C=CC(=O)C=C1 | 5.81 |
| C=CCn1c(SCC(=O)NCCO)nc2sc(C)c(C)c2c1=O | 11.6 |
| Cc1ccc(N2CCCn3c2cc(C)c(C#N)c3=O)cc1Cl | -22.8 |
| CCOC(=O)C1=C(CN2CCc3ccccc32)NC(=O)NC1c1ccc(Cl)cc1 (stereo not shown) | -0.598 |
| COc1ccccc1/C=C/C(=O)NCC(=O)n1nc(C)cc1C | 11.3 |
| CC(=O)Nc1ccc(NS(=O)(=O)c2ccc3[nH]c(=O)[nH]c3c2)cc1 | 6.32 |
| O=C(O)c1csc(-c2cccs2)n1 | 6.72 |
| COc1ccc(C)cc1NC(=O)CCNS(=O)(=O)c1ccc2c(c1)CC(C)N2C(C)=O (stereo not shown) | 1.85 |
| O=c1ccccn1CCOc1ccc(Cl)cc1 | 12.3 |

| Compound | hERG current change (%, negative = inhibition) at 10uM [%] |
| --- | --- |
| CCCCn1c(N)c(N(CC)C(=O)c2cccc(OCc3ccccc3)c2)c(=O)[nH]c1=O | -9.67 |
| Cc1cc(C)c(NC(=O)CNC(=O)COC(=O)Cc2ccccc2C)c(C)c1 | 8.67 |
| CC(=O)C1=C(O)C(=O)N(CCCn2ccnc2)C1c1ccc(Br)cc1 (stereo not shown) | 15.6 |
| CN(C(=O)CSc1nnc2ccccn12)c1c(N)n(Cc2ccccc2)c(=O)[nH]c1=O | 4.42 |
| O=C(c1ccc(Cl)cc1[N+](=O)[O-])N1CCN(c2ccccn2)CC1 | -34 |
| COc1ccc(Cl)cc1Nc1nc(-c2sc(NC(=O)c3ccccc3)nc2C)cs1 | 17.4 |
| Cc1cc(-c2ccc(C)c(S(=O)(=O)NCC3CCN(Cc4ccccc4F)CC3)c2)on1 | -52.8 |
| O=C(Cn1nnc(-c2ccccc2Cl)n1)N/N=C/c1ccc(-c2cccc(Cl)c2)o1 | 2.26 |
| O=C(N/N=C/c1ccco1)c1ccc(N2CCCC2=O)cc1 | 2.45 |
| COC(=O)CSc1nnc(-c2ccc(OC)c(OC)c2)o1 | 9.19 |
| NC(=O)NC(=O)CN1c2cccc3cccc(c23)S1(=O)=O | -4.59 |
| O=C(Nc1cccc(Cl)c1N1CCCC1)c1ccco1 | 6.11 |
| O=C(O)c1ccc(NCc2cccc(Br)c2)cc1 | 5.85 |
| O=C(CCC(=O)N(CC(=O)NC1CCCC1)c1cccc(F)c1)Nc1nccs1 | -9.41 |
| CCOC(=O)N1CCN(C(=O)c2ccc(CS(=O)Cc3ccc(C)cc3)o2)CC1 (stereo not shown) | 7.08 |
| CC(=O)c1ccc(S(=O)(=O)NCCC(=O)OCC(=O)NCCc2ccccc2)cc1 | -15.1 |
| CCC(=O)c1ccc(O)c(OC)c1 | -4.3 |
| Cc1ccc2c(c1)N(CC(=O)NCc1cccnc1)C(=O)CO2 | -0.769 |
| CCOC1=C/C(=C/c2c(N)n3nc(CC(=O)N4CCCCC4)sc3nc2=O)C=CC1=O | 20.4 |
| CC1=C(C(=O)OC2CCCCC2)C(c2ccc(C)o2)C2=C(CC(C)(C)CC2=O)N1 (stereo not shown) | -5.15 |
| Cc1cc(C(=O)NCc2cccnc2)n(-c2ccccc2)n1 | -9.81 |
| CCn1c(SCC(=O)N2CCOCC2)nc2c(c1=O)SC(C)C2 (stereo not shown) | 7.5 |

| Compound | hERG current change (%, negative = inhibition) at 10uM [%] |
| --- | --- |
| O=C(Cc1c[nH]c2ccccc12)N1CCc2ccccc21 | 1.03 |
| Cc1ccc(OCCN2CCN(c3nc(NCc4ccco4)c4ccccc4n3)CC2)cc1 | -62.6 |
| OCCNc1nc2ccccc2n1CC(O)c1ccccc1 (stereo not shown) | -2.73 |
| CN(C)C(=N)c1n[nH]nc1SCc1ccccc1.Cl | 19.3 |
| COc1cc(OC)c2c(-c3ccccc3)cc(=O)oc2c1C(CCN1CCCC1)c1ccc2c(c1)OCO2 (stereo not shown) | -46.9 |
| CCOc1ccc2[nH]c(=O)c(CN(CCO)C(=O)c3ccccc3F)cc2c1 | -0.495 |
| COC(=O)c1ccccc1NC(=O)Nc1ccc(C)cn1 | 17.8 |
| COc1ccc(OCC(O)CNC(=O)/C=C/c2cccc([N+](=O)[O-])c2)cc1 (stereo not shown) | 17.6 |
| C=CCSc1nc(C)cc(C(=O)OCC)c1C#N | -28.4 |
| Cc1cccc(N(CC(=O)NC2CCCC2)C(=O)c2nsc(Cl)c2Cl)c1C | 2.47 |
| O=C1C2C(C(=O)N1Cc1ccco1)C1C=CC2C12CC2 (stereo not shown) | 5.33 |
| CC(C)(C)c1ccc(OCCC(=O)Nc2cccc(S(=O)(=O)N3CCOCC3)c2)cc1 | -5.84 |
| CCOC(=O)CN(C(=O)CSc1nnc2c(n1)[nH]c1ccccc12)c1ccccc1 | -5.55 |
| Cc1c(NC(=O)C2CCCN2C(=O)c2cccs2)c(=O)n(-c2ccccc2)n1C (stereo not shown) | 14.2 |
| CN(Cc1cnc2nc(N)nc(N)c2n1)c1ccc(C(=O)N[C@@H](CCC(=O)O)C(=O)O)cc1.O | 16.5 |
| CCN(C(=O)c1cccc(S(=O)(=O)N(C)C)c1)C12CC3CC(CC(C3)C1)C2 | 14.3 |
| COc1ccc2nc(NC(=O)c3ccccc3C(=O)O)sc2c1 | 29.6 |
| Cc1cc(C(=O)OCC(=O)Nc2c(F)cccc2F)c(C)n1-c1ccccc1 | 8.99 |
| CC(=O)C1=C(c2ccccc2)NC(=O)NC1c1ccc(O)c(Cl)c1 (stereo not shown) | 17.6 |
| C1COCCO1.Nc1c(C(=O)O)sc2nc(-c3ccccc3)cc(-c3ccccc3)c12 | 12.3 |
| O=C(NC1CC1)c1cc2c(s1)CS(=O)(=O)C2 | 10.2 |
| COc1ccc(C2(C)NC(=O)N(CC(=O)c3ccc4c(c3)OCO4)C2=O)cc1 (stereo not shown) | 16.8 |
